According to the supplement of paper PMC11417369:
Some of the results follow.

system: PfAP2-HC AP2 domain (GST-tagged); test: gcPBM binding intensity (ln(normalized median fluorescence intensity)); higher = stronger DNA binding
Method in brief: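 An Agilent 4 × 180k array of primer-extended double-stranded 36-bp intergenic genomic probes, with negative controls, was incubated for 1 h with GST-tagged P. falciparum DNA-binding domains expressed in E. coli. Alexa488 anti-GST antibody detected bound protein, scanned at 488 nm. Binding intensity is the highest Masliner-normalised natural-log median intensity across replicate spots of either probe orientation.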

| Sequence | gcPBM binding intensity (ln) |
| --- | --- |
| GATATAATGTGTTTGGTATTCTTGATAGATAGTTTT [CACACA_negctrl_site1711] | 9.81 |
| ATGATGTCTTTATATTGTACATATATGAAGACGTTA [XGTACX_site7751] | 9.46 |
| TTAACCTTTTGATATTGTACCCATAATCTAATACAA [XGTACX_site769] | 9.44 |
| TTTTTTAAAAAAGTTTTCTGTATTTATATATATATA [CACACA_negctrl_site31] | 9.48 |
| TCATATGTATAAATTAGTACATATTTAATGGATATA [XGTACX_site3298] | 9.48 |
| CTATCTACATAAACGTGTACCCACAAATAAATAAAT [XGTACX_site5210] | 9.6 |
| TTATGTCATAAATGCACACATATATATATACATATA [CACACA_site1588] | 9.76 |
| AGGCACGTGTTATATACACACATAATCAAATAAACT [CACACA_site7852] | 9.79 |
| ACATTTTATACGATAAAATGTATAAGATTATGAAGA [TGCATGCA_negctrl_site476] | 9.64 |
| AAAATAATAACATTGTGTACATAAAAAGAAAACCTT [XGTACX_site840] | 9.95 |
| TATGAATGGTTAAGTACACACATATTAATATATGTA [CACACA_site3490] | 9.69 |
| AAATGAAAATAAAGCAACAGAAATATAATGTATTAT [GTGCAC_negctrl_site508] | 9.88 |
| TTTTTTTACAACATTACACACAAATATTCTGTGTTA [CACACA_site5957] | 10 |
| AGAAAATTAAAAAGAACACACAAATATATATATAAT [CACACA_site5896] | 10.2 |
| AATCGTGTTCTGAATACACACTAATACAAATTTGTA [CACACA_site6058] | 9.75 |
| AACAAAAATAATAATCAAATAAATAAATGAAAACAT [CACACA_negctrl_site456] | 9.87 |
| ATATTACAACATTTTATACACACGTGATTATTAATT [CACACA_site2877] | 9.87 |
| AACATTTTAAAACAGACACACACCAAAAAAAAAAAA [CACACA_site257] | 10.2 |
| CACCCATAAATATACACACGCACAACACAAAATAAA [CACACA_site2903] | 10.7 |

| Sequence | gcPBM binding intensity (ln) |
| --- | --- |
| ATATATATATATACATGTACAAATGTATAACAAATG [XGTACX_site145] | 9.78 |
| TGGTACCTTACTTTTACACACTTTTTTTTTTTTTTT [CACACA_site1557] | 9.91 |
| CCATTTTAAATATGCACACAGATGCACTAACACATT [CACACA_site5099] | 10.1 |
| AATATATACGCATGCGCACACACAAGTGGGAAATTT [CACACA_site1786] | 10.2 |
| TTTTGAGTAGCCTATTGTACGAACTTTTTAAATACA [XGTACX_site1224] | 9.39 |
| CATCCTATTACTTGGTGTACTATTTTATATTGAATA [XGTACX_site1050] | 9.85 |
| ATAAATTTATCCAAGTGTACAAAGCTAACATTTTTT [XGTACX_site4399] | 9.59 |
| GTTTATAAAATAAGAAGTACTTTATGAGAACCATAT [XGTACX_site5789] | 9.53 |
| ATAAACAAGACGCAACAAAGTAGAAATTAAAAATAA [CACACA_negctrl_site345] | 10.1 |
| AAAAATGGAATTATCTGTACATATATAGTTTTTAAA [XGTACX_site5580] | 9.59 |
| ACATTAAGACACATTGCACACGTGCACCCATAGAAA [CACACA_site8029] | 9.8 |
| ACCTGGACAAAAATAAATAAATAAATAAATAAATGA [GTGCAC_negctrl_site238] | 9.6 |
| AATTCTTTTTTCAACACACACACACTAGAAAATATA [CACACA_site5681] | 10.3 |
| TAAATACAGAAACACACACACAAATATATACATACA [CACACA_site2880] | 10.5 |
| TTTATATATTATTAATGTACAAAATTTTTATTGCAT [XGTACX_site3329] | 9.43 |
| CTTTTAATATGTGTAGTGCATTTTTTTTTTTTTTTT [GTGCAC_site9727] | 9.66 |
| AAAAAAAAAAAAAACACACACAACACCCATACCTTA [CACACA_site3621] | 11.2 |
| GTCCTTCATCATATTTAACACACAGAGAAAAAGCGG [CACACA_site7979] | 9.67 |
| GGAATTATATGAAATAAACACACATATGTAATATTA [CACACA_site8586] | 9.84 |

| Sequence | gcPBM binding intensity (ln) |
| --- | --- |
| TTTTTTTTTTTTTTGGTGCGTTTATATATAAATATA | 9.47 |
| AAAATCTAATATAATGCACACATAAAAAAAAAATCA [CACACA_site8871] | 10.1 |
| TACATCGACCTATGTACATGCAAATTATTTTTATTT [TGCATGCA_site182] | 9.83 |
| TTGGTAATAATTTGAGGTACACTGTATAAATTTTTT [XGTACX_site909] | 9.54 |
| ATTTTTTTGTGTTTGGTACACACGTTATAAAAAATA [CACACA_site1345] | 9.75 |
| TTTTTTTCTTAAAGATGTACTTTTTTAAAATAATCT [XGTACX_site3663] | 9.36 |
| AATAATAAATTATGGTGTACGCATTTGTATATATAC [XGTACX_site5417] | 9.74 |
| TAAAAGAAATATACATGTACATAAATATATATATAT [XGTACX_site1276] | 9.9 |
| GCCCAACCAAAATATACACACAGTTGAATGAATAAA [CACACA_site2597] | 9.72 |
| TATATTTGGAAATATTCTCAATTGGTACAAATAAAA [CACACA_negctrl_site1202] | 9.27 |
| GATATGTGACGTTTGGTATTTTTGATGTTGGTAGGA [CACACA_negctrl_site1448] | 9.97 |
| TTTTGGATCATTTGTTGTACATATGCAAAAAAAAAA [XGTACX_site3157] | 9.45 |
| AAAAAAATAAAATTATATAAAATAAATTTTTATAAT [GTGCAC_negctrl_site587] | 9.51 |
| GGAAAATACATTCCAGTGCATTAATTTATTCAACGT | 9.6 |
| TATGATACATAATATACATGCATACACAACATTCAG [TGCATGCA_site487] | 9.79 |
| ATATATATATATATTTATTCATATATTTTTTGTCTT [TGCATGCA_negctrl_site58] | 9.52 |
| TAAAGAAACGCATCGACGCACACTACAAAATAAAAA [CACACA_site1348] | 9.84 |
| TTTTTATTTTTTCAGTGTACATTTAAATTATCTTAT [XGTACX_site3905] | 9.75 |
